Results reported in the RNAGym collection of RNA variant scans (doi:10.1093/nar/gkz1192).
The source gives no read counts; variants with many changes may rest on few reads.

B1: CPEB3 Ribozyme (parent)
chain: UAACAGGGGGCCACAGCAGAAGCGUUCACGUCGCAGCCCCUGUCAGAUUCUGGUGAAUCUGCGAAUUCUGCUGUAUAUCUC

Variants of: B1
Test: self-cleavage, relative activity (ratio to wild type); higher = more cleavage; in vitro, sequencing
How it was run: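 Relative activity compares each variant's cleaved/total read fraction with that of the unmutated ribozyme. To get these fractions, barcoded CPEB3 ribozyme libraries from rounds of error-prone PCR were transcribed with T7 RNA polymerase for 5 hours at 37°C and then given 15 min of DNase I treatment before EDTA was added. The RNAs were reverse transcribed with template switching and sequenced on Illumina, and DNA sequencing linked barcodes to variants. A minimum of 5 reads applied, and three batches were averaged.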

Row | Variant | self-cleavage
1 | A5G U51C U80C | 0.9
2 | A5G G22A U58G | 0.14
3 | A5G G42A U54C C68U | 0.22
4 | A5G U69C U72C | 0.19
5 | A5G U69C U72A | 0.66
6 | A5G G7A A18G C23A U69A U72C U78C | 0.04
7 | A5G U26C G53C A64G U66C U78C | 0.05
8 | A5G G8A A15G U51C U69A | 0.42
9 | A5G G8U A15G C32A U41C C44G | 0.2
10 | A5G U26C U54G U66C | 0.24
11 | A5U A13G G52A U72C A75G | 0.63
12 | A5U A13G U25C U41A A56U G63C U66C | 0.09
13 | A5G U41C U76A | 0.33
14 | A5G U43A A56U A57G U76C A77C | 0.41
15 | A5G G6U A15G U26A A35U | 0.09
16 | A5G G9A A15G A18U A35G A77C U80A | 0.07
17 | A5G U43C U49C U54C | 0.19
18 | A5G G10C A13G U43A A64U A75U | 0.06
19 | A5G G7U A20G U31A | 0.1
20 | A5G U31C A57G A75U | 0.32
21 | A5G G16U U49C A77G | 0.11
22 | A5G G46A U72C U80C | 0.35
23 | A5G U26A U43A A57G C68U C81U | 0.11
24 | A5G U26A A77G | 0.96

Row | Variant | self-cleavage
25 | A5G U48C U51G U76C | 0.06
26 | A5U A13G U25A C34G U51C | 0.32
27 | A5G G8U A15U U69A U72C | 0.26
28 | A5G U25C U49C U74C | 0.45
29 | A5G G53A U67G U72G | 0.08
30 | A5G G10A U26G U78C | 0.35
31 | A5G G46C U72C A75C | 0.05
32 | A5G U25G U41A A64U | 0.29
33 | A5G U60A U80C | 0.57
34 | A5G G24A G63A | 0.33
35 | A5G G10A C17U U54C | 0.14
36 | A5G U26C G46A G63A | 0.03
37 | A5U A13G G70C U78C | 0.19
38 | A5G U31A U48C A56C | 0.11
39 | A5G G36U U54C U80C | 0.28
40 | A5G G9U A20G G24U U74C U78C | 0.14
41 | A5G U60A U69C | 0.13
42 | A5U A13G C37G G42A U72A U76A | 0.14
43 | A5G G8U U25A A35G | 0.22
44 | A5G U41C U69A U72A | 0.27
45 | A5G U26C C37U U67C U69A | 0.15
46 | A5G G8C G19A U49A A65G U76A | 0.07
47 | A5U A13G C32G C38U A47G | 0.21
48 | A5G G8U U43C A47G U60C | 0.9

Row | Variant | self-cleavage
49 | A5G U72A U80C | 1
50 | A5G U51A A56G | 0.32
51 | A5G U49C G55U U78C | 0.26
52 | A5G G10C A20G A65U U76A | 0.13
53 | A5G U43C A64U | 0.45
54 | A5G U43C A64C | 0.09
55 | A5U A13G G19C | 0.39
56 | A5G U41C A65G | 0.24
57 | A5G U69A U76C U80A | 0.57
58 | A5G U25C U49G U54A U66C | 0.2
59 | A5G G7U A28U U69C | 0.08
60 | A5G U60C A65G U74A | 0
61 | A5G U31C A75C U78C | 0.41
62 | A5G G10C A21G G22U A28C | 0.1
63 | A5G G30U A57G U76C | 0.49
64 | A5G G8A C23U U51A | 0.36
65 | A5G U25A U26C | 0.53
66 | A5G U54C U60G | 0.14
67 | A5G G9C U58G U74A | 0.08
68 | A5G U41A U49C | 0.35
69 | A5G U31C G36A A45G U76A | 0.06
70 | A5G U31A U54C U60C U67A | 0.15
71 | A5G U26C U60A A75U | 0.15
72 | A5G U25G U26C G30C A56G | 0.2

Row | Variant | self-cleavage
73 | A5G U41G A56G U66C U69G | 0.07
74 | A5G U25C U72A | 0.18
75 | A5G G61A A65G | 0.23
76 | A5G U25C U54C | 0.59
77 | A5G U58C U66C U72C | 0.19
78 | A5G G30A U66C A75U | 0.09
79 | A5G U49C G53A A56U | 0.26
80 | A5G G33A A57U U66A A75G U80C | 0.12
81 | A5G U41C U80A | 0.87
82 | A5G U25A U26G U48A U51C A56U A75G | 0
83 | A5G G9A A77C | 0.58
84 | A5G U66C C68A | 0.5
85 | A5G U67A A77G | 0.71
86 | A5G U51C U60A | 0.14
87 | A5G G9A U51A G61A | 0.23
88 | A5G U26A U51C | 0.42
89 | A5G U25A A35U U67G U74C | 0.06
90 | A5G G9U C34A | 0.07
91 | A5U A13G A64U U69C | 0.23
92 | A5G G9A A18U U54C U72C U74A | 0.06
93 | A5G U48G U66A | 0
94 | A5G G6U A13U U41C | 0.66
95 | A5G U43C G53U A56G | 0.55
96 | A5G U25C U26C | 0.48

Row | Variant | self-cleavage
97 | A5G G6U A13G C23A A47G U48C A64U | 0.04
98 | A5G G19U U60C U78C | 0.32
99 | A5G U43A U49C U72C U80C | 0.52
100 | A5G U25C U41C | 0.57
101 | A5G U43A G46A | 0.32
102 | A5G U31G U49C A57G U67C U72A | 0.08
103 | A5G G10A A47C | 0.07
104 | A5G U41A U54A C71U | 0.11
105 | A5G G7A A21G C40A U66C U78A | 0.05
106 | A5G U26C G36U A64G U76C | 0.09
107 | A5G U60C U78C | 0.21
108 | A5G U54G U69A | 0.15
109 | A5G G8A A13U U31A U43A | 0.12
110 | A5G G7A A13U U25A G36A A64U | 0.09
111 | A5G G9C A28G A47G U60A | 0.32
112 | A5G U26C A35G U41G U80A | 0.55
113 | A5G U43A U69A U80C | 0.28
114 | A5G G24A A28U A56U U66A | 0.22
115 | A5G G8U A13G A21G U67G | 0.07
116 | A5G G7A A20U A57G U72A | 0.09
117 | A5G G22A A75U | 0.13
118 | A5G U31A C59A | 0.31
119 | A5G U43C A47U | 0.15
120 | A5G G8C A21G G30C U72C | 0.08

Row | Variant | self-cleavage
121 | A5G U25C U43A U54C | 0.09
122 | A5G U26A A35G | 0.84
123 | A5G G36U G42C U51A C71U U78C | 0.13
124 | A5G G24A G30U U41C U48C U54G A64U | 0.07
125 | A5G G9U C39U | 0.11
126 | A5G G30A A35U U43C U67A | 0.62
127 | A5G G10A U25C U58G C79A | 0.24
128 | A5G U49C A75U | 0.3
129 | A5G G7A C81A | 0.55
130 | A5G U26G A45G A65U | 0.23
131 | A5G U41A A45G U49A | 0.03
132 | A5G U41A U78C | 0.24
133 | A5G U26C U58A U69C U72A | 0.06
134 | A5G U31G U41C C62A | 0.5
135 | A5G U48C A64U U80A | 0.22
136 | A5G G55C A56G U74G | 0.78
137 | A5G U26A A35U U41G A45G A65U | 0.17
138 | A5G G9A C14U U26C U31C A47G U58C | 0.05
139 | A5U A13G U26C C32U U51G G63A | 0.04
140 | A5G G24A A35G A45G | 0.3
141 | A5G G6U U51A U58C U80A | 0.08
142 | A5G U26C U41C U43C | 0.58
143 | A5G G16U A65G U78C | 0.05
144 | A5G G8A A18G G63A | 0.23

Row | Variant | self-cleavage
145 | A5G U26C U31C A45U A47U U49C U66A | 0.05
146 | A5G G33U U41G U58G | 0.07
147 | A5G U31G U69G | 0.44
148 | A5G G8C U67C A75C | 0.05
149 | A5G U26C U76C | 0.51
150 | A5G U25A A35U A45U | 0.07
151 | A5G G8A A45G G52U U69A U76C | 0.06
152 | A5G G8U A20G U43C | 0.09
153 | A5G U26A U72A | 0.3
154 | A5G U25C U58C | 0.12
155 | A5G U41C U78C | 0.42
156 | A5G U67C U74A | 0.41
157 | A5G U26C U54A | 0.18
158 | A5G U26C G36A U76C | 0.09
159 | A5G G70A U72C | 0.11
160 | A5G G53C A75G | 0.83
161 | A5G G8U U41C | 0.19
162 | A5G U43C A57G U80C | 0.38
163 | A5G G7U G9C G16C U43A U66C U69A | 0.06
164 | A5G U48C U60A A64U | 0.16
165 | A5G G8A U51A | 0.17
166 | A5G G9A U41C U54C | 0.34
167 | A5G G9A A21U G55U A56U U60A | 0.14
